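Exposure lasted 48 hours, with cells grown in 96-well plates and compounds tested at five concentrations. Here, GI50 denotes the concentration required for 50% inhibition of growth. TGI: total growth inhibition.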

This test has as its system NCI-H322M lung. Put plainly: NCI-60 cell line screen, 48 h.
Turning to `Nc1cc(-c2c[nH]c3ccc(F)cc23)nc2cc(-c3c[nH]c4ccccc34)nn12`, the GI50 was 6.05 µM and the TGI came to 19.3 µM.

For the compound `C[C@H]1CN(C(=O)c2ccc3c(NNC(=O)c4ccncn4)nc4cc(F)c(F)cc4n23)CCN1`, the GI50 is 1.34 µM and the TGI worked out at 19 µM.

On to `CSc1nc(-c2cccc(C)c2)c2cc(-c3ccccc3)n(C)c2n1`, for which the GI50 is 22 µM and the TGI is above 100 µM.

For `CCN(CC)c1ccnc(CNCCSC(c2ccccc2)(c2ccccc2)c2ccc(OC)cc2)c1`, the GI50 was 3.87 µM and the TGI was 15.6 µM.

Source of the values: PubChem BioAssay (NCI).
